Measured values reported in US20260078155A1 (NAVIGO PROTEINS, published 2026).

B1: Affilin-199490 (designed binder)
chain: MQIFVKTLEEKYIALEVEPSDTIENVKAKVQDKEGIPPDQQELLWYGEQLEDGRTLSDYNILGGAVLKLQLRLRAAGGSGGGSGGGSGGGSGMQIFVKTLEEKYIALEVEPSDTIENVKAKVQDKEGIPPDQQELLWYGEQLEDGRTLSDYNILGGAVLKLQLRLRAA
notes: also called homodimer of Affilin-197556b
B2: Affilin 202521 (designed binder)
chain: MQIFVKTLEEKYIALEVEPSDTIENVKAKVQDKEGIPPDQQELLWYGEQLEDGRTLSDYNILGGAVLKLQLRLRAAGGSGGGSGGGSGGGSGMQIFVKTLEEKYIALEVEPSDTIENVKAKVQDKEGIPPDQQELLWYGEQLEDGRTLSDYNILGGAVLKLQLRLRAASAC
B3: Affilin 202521-Dota-Lu (designed binder)
chain: B2 chain
modifications: Dota on the C-terminal coupling sequence "SAC" (cysteine), labeled with Lutetium Lu3+
B4: Affilin-197556a (designed binder)
chain: MQIFVKTLEEKYIALEVEPCDTIENVKAKVQDKEGIPPDQQELLWYGEQLEDGRTLSDYNILGGAVLKLQLRLRAASAWSHPQFEK
notes: Ubiquitin mutein; The flow cytometry assays detect with an anti-Strep-Tag antibody

Tests used:
[1] = molecular target: FOLR2 (folate receptor beta) as used in the SPR assay (UniProt P14207 17-230, limits assumed); experiment: SPR (Biacore), Affilin-199490 on FOLR2 (FOLR-beta) compared with FOLR1 (FOLR-alpha)
[2] = molecular target: T1, FOLR1 on transfected HEK293-FOLR1-cells (human, UniProt P15328 25-234); experiment: flow cytometry on HEK293-FOLR1-cells; EC50 after 24 h in mouse serum against 0 h
T1 construct: whole, on cells; also called surface-exposed FOLR1; folate receptor alpha
Experimental: (§1) Flow cytometry was used to analyze the specific interaction of FOLR1 binding proteins with surface-exposed FOLR1 but not with FOLR2. Transfected HEK293-FOLR1-cells, HEK293-FOLR2-cells, and empty vector control HEK293-pEntry-cells were trypsinized and resuspended in medium containing FCS, washed and stained in pre-cooled FACS blocking buffer. A cell concentration of 1×10⁶ cells/ml was prepared for cell staining and 100 μl/well were filled into a 96 well plate (Greiner) in triplicate for each cell line. 50 nM of Affilin proteins or monoclonal anti-human-FOLR1 antibody (clone LK 26; BioLegend, 908301) as positive control or anti-human-FOLR2 antibody (clone EM35; Sysmex, BD029864) were added to FOLR overexpressing and control cells. After 45 min the supernatants were removed, and 100 μl/well rabbit anti-Strep-Tag antibody (GenScript; A00626), 1:300 diluted in FACS blocking buffer, were added. Anti-FOLR1 antibody and anti-FOLR2 antibodies were detected with anti-mouse-IgG-Alexa 488 (Invitrogen; A-10680) with a dilution of 1:1000. After removal of the primary antibody, goat anti-rabbit IgG Alexa Fluor 488 antibody (Invitrogen; A11008) was applied in a 1:1000 dilution. Flow cytometry measurement was conducted on the Guava easyCyte 5HT device (Merck-Millipore) at excitation wavelength 488 nm and emission wavelength 520 nm.
(§2) The stability of FOLR1 binding proteins in the presence of serum was analyzed. […] 100 μl Affilin-serum solution was used to analyze the serum stability on HEK293-FOLR1-cells by FACS as described above (example 6). FACS analysis confirmed the binding of Affilin proteins to FOLR1 even after 24 h incubation in mouse serum (see Table 5). Further FOLR1 proteins were tested (results not shown) and binding to FOLR1 was confirmed even in the presence of serum.

[3] = molecular target: T1, FOLR1 on transfected HEK293-FOLR1-cells; experiment: flow cytometry on HEK293-FOLR1-cells, after 24 h in 100% mouse serum at 37 C
Experimental: as §1, §2

[4] = molecular target: T2, FOLR1-Fc (human FOLR1 residues 25-234 fused with the Fc-fragment of human IgG1 followed by a His-tag at the … (human, UniProt P15328 25-234)); experiment: SPR (Biacore 3000), FOLR1-Fc immobilized on CM5 chip, Langmuir 1:1
T2 construct: range 25-234; Made in Expi293F cells; also called FOLR1-Fc-His; folate receptor alpha; not shown: Fc-fragment of human IgG1; C-terminal His-tag
Source text: (§3) A CM5 sensor chip (GE Healthcare) was equilibrated with SPR running buffer. Surface-exposed carboxylic groups were activated by passing a mixture of EDC and NHS to yield reactive ester groups. 700-1500 RU FOLR1 (on-ligand) were immobilized on a flow cell. A flow cell without ligand was used as reference. Injection of ethanolamine after ligand immobilization was used to block unreacted NHS groups. Upon ligand binding, protein analyte was accumulated on the surface increasing the refractive index. This change in the refractive index was measured in real time and plotted as response or resonance units (RU) versus time. The analytes were applied to the chip in serial dilutions with a flow rate of 30 μl/min. The association was performed for 30 seconds and the dissociation for 60 seconds. After each run, the chip surface was regenerated with 30 μl regeneration buffer and equilibrated with running buffer. The control samples were applied to the matrix with a flow rate of 30 μl/min, while they associate for 60 seconds and dissociate for 120 seconds. Regeneration and re-equilibration were performed as previously mentioned. Binding studies were carried out by the use of the Biacore 3000 (GE Healthcare); data evaluation was operated via the BIAevaluation 3.0 software, provided by the manufacturer, by the use of the Langmuir 1:1 model (RI=0).

[5] = molecular target: T1, FOLR1 on transfected HEK293-FOLR1-cells; experiment: flow cytometry on HEK293-FOLR1-cells, 0 h in 100% mouse serum
Experimental: as §1, §2

[6] = molecular target: T2, FOLR1-Fc (human FOLR1 residues 25-234 …); experiment: SPR (Biacore), FOLR1 immobilized on CM-5 chip, 1:1 Langmuir fit
Experimental: FIG. 2. […] Analysis via label-free interaction assays using SPR (Biacore). FOLR1 was immobilized on a CM-5 chip. The lines show different concentrations: 0, 0.1, 0.3, 0.93, 2.77, 8.3, 25, and 75 nM.
as §3, with “Binding studies were carried out by the use of the Biacore 3000 (GE Healthcare); data evaluation was operated via the BIAevaluation 3.0 software, provided by the manufacturer, by the use of the Langmuir 1:1 model (RI=0).” left out

[7] = molecular target: T2, FOLR1-Fc (human FOLR1 residues 25-234 …); experiment: ELISA on immobilized FOLR1-Fc, 0 h in 100% mouse serum
Experimental: (§4) High binding plates (Greiner, 781061) were immobilized with 0.1-2.5 μg/ml FOLR1-Fc over night at 4° C. Dilution series of 197556a (SEQ ID NO: 1 with C-terminal sequence […]), 202521 (SEQ ID NO: 30 with C-terminal coupling sequence “SAC”; see SEQ ID NO: 44) and 202521-Dota-Lu (SEQ ID NO: 30 with C-terminal coupling sequence “SAC” and Dota labeled with Lutetium Lu³⁺) were incubated in 100% mouse serum overnight at 37° C. ELISA-plates were washed with 1×PBS and blocked with 3% BSA/0.5% Tween/PBS 2 h at RT. Dilution series after 0 h or 24 h incubation in the presence of serum were incubated on ELISA-plates 1 h at rt. After washing with PBST, wells were incubated with biotinylated anti-ubiquitin-antibody (1:1000) 1 h at rt. The binding was visualized with Streptavidin-HRP (1:10.000).

[8] = molecular target: T2, FOLR1-Fc (human FOLR1 residues 25-234 …); experiment: ELISA on immobilized FOLR1-Fc, after 24 h in 100% mouse serum at 37 C
Experimental: as §4

[9] = molecular target: T2, FOLR1-Fc (human FOLR1 residues 25-234 …); experiment: ELISA on immobilized FOLR1-Fc; Kd after 24 h in mouse serum against 0 h
Experimental: as §4

[10] = molecular target: T2, FOLR1-Fc (human FOLR1 residues 25-234 …); experiment: ELISA on immobilized FOLR1-Fc, 0 h in 100% mouse serum; 0 h in mouse serum
Experimental: as §4

T1 sequence (P15328 25-234): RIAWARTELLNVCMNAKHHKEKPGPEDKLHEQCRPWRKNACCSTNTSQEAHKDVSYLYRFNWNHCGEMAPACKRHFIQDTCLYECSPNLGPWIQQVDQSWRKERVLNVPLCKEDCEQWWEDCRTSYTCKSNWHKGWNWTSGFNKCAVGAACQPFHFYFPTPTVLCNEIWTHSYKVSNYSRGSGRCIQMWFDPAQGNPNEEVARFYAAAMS
UniProt P14207, sequence (P14207 17-230 limits assumed): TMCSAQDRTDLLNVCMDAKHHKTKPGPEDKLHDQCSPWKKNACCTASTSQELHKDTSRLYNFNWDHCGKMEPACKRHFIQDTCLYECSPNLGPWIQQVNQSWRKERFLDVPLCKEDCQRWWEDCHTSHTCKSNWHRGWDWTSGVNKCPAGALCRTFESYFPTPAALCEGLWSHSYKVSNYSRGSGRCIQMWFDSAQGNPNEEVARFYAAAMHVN

Binder	binding result [1]	Decrease (fold) [2] [fold]	EC50 [3] [nM]	Kd [4] [nM]	EC50 [5] [nM]	Kd [6] [nM]	Kd [7] [nM]	Kd [8] [nM]	Decrease (fold) [9] [fold]	Kd [10] [nM]
B1	no binding	1.1	0.47	0.119	0.43	< 0.5	–	–	–	–
B2	–	–	–	–	–	–	0.074	0.11	1.5	–
B3	–	–	–	–	–	–	0.05	0.046	0.9	–
B4	–	1	0.4	0.411	0.4	–	–	0.041	1.2	0.035
